Measured values: PubChem BioAssay AID651820 (National Center for Advancing Translational Sciences (NCATS), 2012)
Several values for one entry are separate records, joined by “and”; a condition that tells them apart may be missing. Equal entries are not always repeated. Among all 340,000 compounds or so, about 12,000 (3.5%) were called active. The inconclusive results got no clear call from the source; some entries with a clear call stand among them for comparison. Calls follow the shape of the dose curve; as a rule, active = well fitted inhibition curve with a large enough effect; inconclusive = small, poorly fitted or top-dose-only effect, or another doubt; inactive = no such curve, though single readings can be large or run the other way. A potency beside an inconclusive call is a rough fit, not a confirmed value.

Assay: qHTS Assay for Inhibitors of Hepatitis C Virus (HCV)
Details: Huh7.5.1 HCVcc-Cre (HCVcc is cell-culture hepatitis C virus) infection, luciferase reporter, 44 h; activity change, negative = inhibition: at 41.8 µM (top of the series)
Procedure, shortened: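 Cells (1,000/well) were plated 4 h before compound, then infected with HCVcc-Cre virus (~0.5 moi). After 44 h further culture, infection was read as luciferase luminescence following a 15 min substrate incubation at room temperature.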
% is scaled to controls: 0 for no effect and ±100 for the full control effect; potency is read from the fitted curve at half-maximal effect; tags tell the direction and shape of the fitted curve.

Structure (SMILES) | Potency | activity change, negative = inhibition
NS(=O)(=O)c1cccnc1Nc1ccc(Cl)c(Cl)c1 | inconclusive: 31.6 µM [inhibitor, single point] | 
CC(=O)N1CCN(Cc2nc3cc([N+](=O)[O-])ccc3n2C)CC1 |  | inactive: 4.66%
Cc1ccc(-c2nnc(N3CCN(C(=O)c4cccs4)CC3)c3ccccc23)cc1 | inconclusive: 31.6 µM [inhibitor, single point] | 
CCOc1ccc(CCNC(=O)CCNS(=O)(=O)c2ccc(Br)cc2)cc1OCC | inconclusive: 10 µM [inhibitor, partial curve] | 
Cc1ccn2cc(CCNC(=O)COc3ccccc3)nc2c1 |  | inactive: -4%
Cc1cc(C)c(C(=O)CC2(O)C(=O)Nc3ccccc32)cc1C (stereo unspecified) | inconclusive: 2.24 µM [inhibitor, single point] | 
CCN1C(=O)[C@H]2[C@@H](c3ccc(SC4CCCCC4)cc3)N3CCCC[C@@]3(C(=O)OC)[C@H]2C1=O |  | inactive: 19.3%
Cc1nc(Cl)sc1C(=O)Nc1ccc(Cl)cc1 | inconclusive: 31.6 µM [inhibitor, single point] | 
COc1ccc(CNc2ncc(-c3ccc(F)cc3)n2C)cc1OC |  | inactive: -16.5%
COc1ccccc1CNC(=O)c1oc2ccc(S(=O)(=O)N3CCCC3)cc2c1C | inconclusive: 14.1 µM [inhibitor, single point] | 
Clc1cccc(OCCN2CCN(CCOc3cccc(Cl)c3)CC2)c1 | inconclusive: 31.6 µM [inhibitor, single point] | 
Cc1nn(C)c(C)c1S(=O)(=O)NCc1cccs1 | inconclusive: 31.6 µM [inhibitor, single point] | 
CNC(=O)Oc1ccc2ncccc2c1 |  | inactive: 3.85%
O=C(NCC(O)c1ccccc1)Nc1cccs1 (stereo unspecified) |  | inactive: 3.92%
Cc1nn(C)c(Cl)c1C(=O)NCC(=O)Nc1ccc(C(C)C)cc1 |  | inactive: -6.61%
O=S(=O)(c1ccc(F)cc1)N1CCN(c2nc(-c3cccnc3)nc3ccccc23)CC1 | inconclusive: 22.4 µM [inhibitor, single point] | 
COc1cc(-n2c(=S)[nH]c3ccccc3c2=O)c(Cl)cc1Cl | inconclusive: 31.6 µM [inhibitor, single point] | 
CCC(=O)NC1(C(F)(F)F)C(=O)Nc2c1c(=O)[nH]c(=O)n2Cc1ccco1 (stereo unspecified) | inconclusive: 2.82 µM [inhibitor, single point] | 
O=C(CCc1nnc2ccc(NCc3ccccc3)nn12)NC1CCCCC1 |  | inactive: 13.4%
O=C(Nc1nc(-c2ccccc2)cs1)Nc1ccc(F)cc1F | inconclusive: 31.6 µM [inhibitor, single point] | 
S=C(NC1CCCC1)N1CCOCC1 |  | inactive: 6.97%
CC(C)C(=O)NC(c1ccc(N(C)C)cc1)c1c(O)ccc2ccccc12 (stereo unspecified) | inconclusive: 22.4 µM [inhibitor, single point] | 
CCOC(=O)N1CCN(C(=O)CSCc2nc(-c3ccccc3C)oc2C)CC1 |  | inactive: -28.2%
O=[N+]([O-])c1cc(CN2CCN(c3ccccc3)CC2)c(O)c2ncccc12 | inconclusive: 1.12 µM [inhibitor, full curve] | 

Structure (SMILES) | Potency | activity change, negative = inhibition
Cc1cc(C)c(S(=O)(=O)N2CCCC(C(=O)NCCC3=CCCCC3)C2)c(C)c1 (stereo unspecified) |  | inactive: 19.9%
Cc1cc(N2CCN(S(=O)(=O)c3ccc(Cl)c(Cl)c3)CC2)c2ccccc2n1 | active: 11.2 µM | 
Cc1ccc(NC(=O)COC(=O)c2ccc3c(c2)NC(=O)C2CCCN32)cc1 (stereo unspecified) | active: 10 µM | 
C[C@@]12C(=O)Nc3ccccc3C(=O)N1[C@H]1c3cc(Cl)ccc3OC[C@@H]1[C@@H]2c1ccccc1 | inconclusive: 11.2 µM [inhibitor, single point] | 
CCOc1c(Br)cc(CNC2CCCCCCC2)cc1OC | active: 11.2 µM | 
CCN(c1ccccc1)S(=O)(=O)c1ccc(N)c(OC)c1 | inconclusive: 7.08 µM [inhibitor, partial curve] | 
COc1ccc2c(Cl)c(C(=O)N/N=C/c3ccncc3)sc2c1 | inconclusive: 10 µM [inhibitor, single point] | 
Cc1c(OCC(=O)C(C)(C)C)ccc2c(-c3ccccc3)cc(=O)oc12 | inconclusive: 8.91 µM [inhibitor, partial curve] | 
CC1CCN(c2ccc3c(c2)S(=O)(=O)c2cccc(C(=O)NC4CC4)c2C3=O)CC1 |  | inactive: -8.06%
CNc1nc(-c2ccc(S(=O)(=O)N3CCCCC3)cc2)cs1 | inconclusive: 31.6 µM [inhibitor, single point] | 
CCN(CC)S(=O)(=O)c1cc(NC(=O)C(C)N2CCc3ccccc32)ccc1C (stereo unspecified) | inconclusive: 10 µM [inhibitor, partial curve] | 
CN(C)/C=C(/C(=O)c1ccc(Cl)c(Cl)c1)S(C)(=O)=O |  | inactive: 18.7%
NCCCC(=O)N1c2ccccc2Sc2ccc(Cl)cc21 | active: 5.01 µM | 
CCN(CC)S(=O)(=O)c1cc(NC(=O)c2ccc(-n3cncn3)c([N+](=O)[O-])c2)ccc1C | active: 11.2 µM | 
O=C1C2C(C(=O)N1CCN1CCN(Cc3ccc([N+](=O)[O-])cc3)CC1)[C@H]1C=C[C@@H]2C1 (stereo partly specified) | inconclusive: 35.5 µM [inhibitor, partial curve, poor fit] | 
CCOC(=O)C1=CN(Cc2cccc(F)c2)S(=O)(=O)N(C)C1c1ccc(F)c(Cl)c1 (stereo unspecified) | inconclusive: 20 µM [inhibitor, single point] | 
CCOC(=O)c1c(C)oc2c1c(C(c1cccnc1)N1CCCCC1)c(O)c1ccccc12 (stereo unspecified) | inconclusive: 12.6 µM [inhibitor, single point] | 
O=C(CC1C(=O)NCCN1Cc1cccc(Oc2ccccc2)c1)NCc1cccnc1 (stereo unspecified) |  | inactive: -10.1%
Cc1cccc(NC(=O)CN2CCN(C(=O)c3ccc(-c4nc5ccccc5s4)o3)CC2)c1C | inconclusive: 22.4 µM [inhibitor, single point] | 
CCCN(CCC)Cc1cc(=O)oc2cc3c(cc12)CCC3 | inconclusive: 25.1 µM [inhibitor, partial curve] | 
O=C(CN1CCN(c2ccccn2)CC1)Nc1ccccc1 | inconclusive: 3.55 µM [inhibitor, single point] | 
c1ccc2c(c1)cc1ccc3cccc4ccc2c1c34 | inconclusive: 12.6 µM [inhibitor, partial curve, poor fit] | 
O=C1CCNc2ccc(-c3ccccc3)cc21 | inconclusive: 8.91 µM [inhibitor, partial curve, poor fit] | 
COc1cc(-c2noc(C)c2-c2ccc3[nH]ccc3c2)cc(OC)c1OC | inconclusive: 7.08 µM [inhibitor, partial curve] | 

Structure (SMILES) | Potency | activity change, negative = inhibition
Cc1c(C(=O)Nc2cccc(Cl)c2)oc2ccc(S(=O)(=O)N3CCC4(CC3)OCCO4)cc12 | inconclusive: 2.51 µM [inhibitor, full curve] | 
Cc1cc(C)cc(OCCNC(=O)c2cc(S(=O)(=O)N3CCOCC3)ccc2F)c1 | inconclusive: 8.91 µM [inhibitor, partial curve] | 
O=C(c1cccs1)N1CCC(Cc2ccccc2)CC1 |  | inactive: 8.91%
O=S(=O)(c1ccc(OCC(O)CN2CCC(Cc3ccccc3)CC2)cc1)N1CCOCC1 (stereo unspecified) | inconclusive: 7.94 µM [inhibitor, partial curve] and inconclusive: 5.62 µM [inhibitor, partial curve] | 
Cc1ccc(C)c(-c2csc(N/N=C/c3ccco3)n2)c1 | active: 12.6 µM | 
CCn1c(SCC(=O)Nc2ccccc2-c2ccccc2)nnc1-c1ccoc1C | inconclusive: 10 µM [inhibitor, partial curve] | 
COc1cccc(-c2nc(N3CCCC3)c3ccccc3n2)c1O | active: 5.01 µM | 
Cc1ccc2nc3n(c(=O)c2c1)-c1cc(Cl)ccc1C(=O)NC3Cc1ccc(O)cc1 (stereo unspecified) | inconclusive: 22.4 µM [inhibitor, single point] | 
O=c1[nH]ncc(N2CCCCC2)c1Cl |  | inactive: -4.83%
COC(=O)c1ccccc1-n1c(CCC(=O)O)ccc1-c1ccccc1 |  | inactive: 0.106%
COC(=O)c1cc(NC(=O)/C=C/c2ccc3c(c2)OCO3)cc(C(=O)OC)c1 | inconclusive: 6.31 µM [inhibitor, full curve, poor fit] | 
COCc1c(C#N)c(NCc2cc(OC)c(OC)c(OC)c2)nc(C)c1[N+](=O)[O-] | active: 11.2 µM | 
COc1cc(OC)cc(-c2nc3cc(C)ccc3o2)c1 | inconclusive: 14.1 µM [inhibitor, single point] | 
CCOC(=O)c1cnc2ccc(OC)cc2c1Nc1ccc(N2CCN(C)CC2)cc1 | inconclusive: 11.2 µM [inhibitor, single point] | 
COc1ccc(N(CC(=O)NC2CCCC2)C(=O)Cn2nnc(-c3ccc(OC)c(OC)c3)n2)c(OC)c1 | inconclusive: 0.501 µM [inhibitor, full curve, poor fit] | 
C/C(=C\COc1cc(=O)[nH]c2ccccc12)CCC(O)C(C)(C)O (stereo unspecified) | active: 0.316 µM | 
COc1ccc(-c2nnc(S/C(=C/c3ccc(Cl)cc3)C(=O)O)o2)cc1 |  | inactive: -14.8%
CCCn1c(SCC(=O)N(CC)CC)nnc1-c1ccncc1 |  | inactive: -6.47%
CC(C)C1N=C(c2ccc3c(c2)OCO3)CC(c2ccccc2O)N1 (stereo unspecified) | inconclusive: 31.6 µM [inhibitor, single point] | 
CCOC(=O)C1=C(C)NC(C)=C(C(=O)OCC)C1/C=C/c1ccccc1 | inconclusive: 35.5 µM [inhibitor, partial curve, poor fit] | 
Cc1cccc(C)c1NC(=O)CN(C)C(=O)c1ccccc1SCC(=O)N1CCCC1 |  | inactive: -26.6%
Cc1cc(NS(=O)(=O)c2ccccc2)no1 | inconclusive: 31.6 µM [inhibitor, single point] | 
CCOCCCn1c(=NC(=O)c2cccs2)c(C#N)cc2c(=O)n3ccccc3nc21 | inconclusive: 2.24 µM [inhibitor, full curve] | 
